The supplement of paper PMC12632987
The full ranking holds about 4,500 sequences; the median of “median log2 fold change of GCK-ALFA target abundance (FLAG IP / Myc IP barcode read proportion)” is about 0.078, and the lowest 2% start at about -0.6. Some of the results follow.

B1: GBRAP_43_5751 (protein)
chain: MEEIIEGHIDFAKLAAEDENISEEQKLKIAKDTFEIVADENIKLPEKLNELTKALAKSLSLEQLKELKKHLKELSKKYPELKEMFDASIKIIEEAIKKKE
B2: GBRAP_14_3810 (protein)
chain: KEKLIKEIEKILKELEKELVEELGLDEKEVKKLVEKAIEEIKKAIEEKENPEEEIEKIFDKLREEIAKLAAKLGADVEAGARALVDDAEYEVDEAIEKYK
B3: GBRAP_139_3739 (protein)
chain: MKEEEIVEEAREKALELKDDPDALADYIVERIKAVDEETAEKIVRAVMEALKDLPVDKILEIVDKVLEKLEEAGVSEDKKDVAEAELNGGLARHAAAEEA
B4: GBRAP_95_7062 (protein)
chain: AEDQEAAIDDALAYAARVELGDESAVPKLAAALVEALKLGVLKEVAAELDDDTLLKALRKAAETASPETVRALIDAALEATGNEALAAEARAYLEALLAA
B5: GBRAP_125_3036 (protein)
chain: SKEQEVADLGTLAKALGYSEEDVAELEELARKHGVKGTLIALLLAEGKEEIAELVEKLSEAEVVAVLKELAAELAANPDLTPEEVIERLKELVEKAVAAS
B6: GBRAP_160_4325 (protein)
chain: SEEYEKLIKEIKEITEEAIKMIKGESKEQRITIVKVALGEIILEVEENPAVSDELEEKVAEIADKAEAYLDANPDLSEEEVIKLLKEATEKIIKLIEEEA
B7: GBRAP_160_4312 (protein)
chain: MEEIEELKKRIREIVEEAIKMIEGESAEQRKTIARVTLGEILLEAEENPAISDELLDEIAAIVDAAEATIDANPDLTEEELKALLRATEEAILALLDKSL
B8: GBRAP_125_2968 (protein)
chain: ATEEELENLRLLALALGLSEEEAEEAAELARASSIRGTLYAIAAGLGYDELAELLAEVTEEEAREILRRTAEYIKAHPDATPEEVVEYMTKLAKEALAAR
B9: GBRAP_166_4916 (protein)
chain: SMEEKLAEAKARIAKLVAAMPKTDEAKQVELAIEIAEVFEELEKAGASEEELLELWRFLAEELKKAGLDVERIMAIVAAAAGLDEEEMEKVDEIVKEVLA
B10: GBRAP_160_4411 (protein)
chain: SEELKKIAEEIYEDVKETLEALLEMGDIDPEQAAGLLEGTILNGIFESEKLTEEQEEQLEKLAEELAREARELLEREGRLTEEIKERLLKLLKEGLEKIL
B11: GBRAP_74_6528 (protein)
chain: DEELLKKLKEAAEAGDVDKAVELAKEIIKNGSKEAIEEAAKILIAFVKKNIDKLTKEELLKLSDTLAELADELMERGGDNEVVNAVAQAAVELDKKAEAL
B12: GBRAP_184_5233 (protein)
chain: KVLEREIEAENAEELRRKLEEVREEARRAGARVRLIIKVKELTKEKAEVLAEQLRRMAAEGLIDLVEVESSTRIEEENVDLLVAAADEAGVRLVLAMEEE
B13: GBRAP_14_3771 (protein)
chain: MEEKEKIIREEAKEIVELLGEIVPEKAEEFRKIVEEVTEKTIKRARETGNWDEALEEGEEELVKRIEEVSKDLPEETRAELVAVVRVGMGEALLEIDELE
B14: GBRAP_52_6302 (protein)
chain: MREEARRLVREIFALVLAGDREGARRRLREFAETANDEEIRVFAEELVRLAREAPLEQLDAVFELAELASEALEEAGKDEVLADDILARTAAAIYEKEQA
B15: GBRAP_160_4508 (protein)
chain: SKTLEEIKKEIEEAREEIKEEIEEGTVEEAIIVAAVELGEVIMEIIEDESMSDEAEDKAAEIRDELIKKLEENKDASVEELKKIVDELTEKLIEELEKLS
B16: GBRAP_52_6259 (protein)
chain: MREEMRKKAKEILELVKEGKLEEARALAKEIAETSNEEELEIFIEEMAELARESSKEEIEDLIKLAELVAEELEEAGKPEEIVSLFEARVYGAIYETEQK
B17: GBRAP_160_4019 (protein)
chain: MEEIEKLKKEIKELLEETKKAIEGLTPEERLTLFRGMAGEILQLAFESPAVSDETEDKIAEIADEFIEEVEANKNASLEVLKALIDDFEKRIFELLEEEK
B18: GBRAP_184_5049 (protein)
chain: KIKEEVIEAENLEELKEKLEELKEKMKNFKGELIVLVKLPEFTLEMVTLILDTLREIKEEGYVEKVTVGLDGKMSEEVVDHALKLADEAGINVVIALEEE
B19: GBRAP_160_3971 (protein)
chain: SEEIEKLKKEIEEIFEEAKKLIEGETYEERLTIVRVAVGEVILLVDSNPLVSDEAEDKVAAIGDALVAELDANPDLTEEEIKKLIEKALEEIKKVLEKDA
B20: GBRAP_35_5517 (protein)
chain: STEKTATEMLVATIEDLVLAVPDMPVEQAAAIAEQLIESALKLAKEFKNDIESLKRLAEALERLLEAIRRHYPDSPLAREVAERIEEAIKEIKKLIEEAK
B21: GBRAP_128_3375 (protein)
chain: VNEEFLKEIEELVEKMLESSVEEVRELTKKIVELLSKASLEEQEAAVEIILEKLPEFSVEKLEAIADVLREERKKASPELQELLADVEVEALNEAEEKEE
B22: GBRAP_160_4223 (protein)
chain: METVEKLVEVFREEFEEALELIEGESPEERRVILDVAAGNVILEAEEIPEATEEMVEVVDRKAEEARERLLAARDASPEERRELIREQAEELREELEKLA
B23: GBRAP_184_5157 (protein)
chain: KVLERVIKAENKEELEEKLAEIRAEAAETKADVYVIVELKNPTKEMLELLLTALGEIKAEGLSPNVVVELTNDLTEEQIDFALKLADEQGVKLVIAISDE
B24: GBRAP_160_4098 (protein)
chain: SAEVEKLIEEIDELLEETKEMIKGESIENRAIIVRGFGGDVLMLLFSSGLVSEETEDFADELFDELVETIESNPDLTEEEIIKLIEEVVEEVKEKIKEEH
B25: GBRAP_160_4624 (protein)
chain: SAKLEKAKAMFEEAREFVLSLVPEVDTATFAAFLDTEFGSVILEALEEGLISEETADKMMAIVDEAVAHLLAHPDLSDEERRALVEEMLARIFEVLEKEY
B26: GBRAP_79_6746 (protein)
chain: GVEEARKALAEALKVVLPELTEEELKEIVESDEALKEALKRAGISEESAEELLKAIDEIPEYSAEQFRKAVERMKGLPPEEKRDILEATIAAIIYKAEQK
B27: GBRAP_160_4512 (protein)
chain: KETLEELFKEIEEAKERILEVIDENDMEAAIIEAEVEYGKVIMEMFEREEVSDEAVEAAAEIRDELVEELKANKDAPVEEKKKIVEEHAEKLKEKLKELF
B28: GBRAP_160_4415 (protein)
chain: SETIEEVEELLREMEELVLELVEEGERAEALAAARVGAGEILLYLDEDERVSEEAEEKVDAVLDALVAELEANADASPEEVRALLEAARKEVLEILKEHT
B29: GBRAP_184_5243 (protein)
chain: TVVDVEVVASTPEEAKAKLDAVRAAAEASGAKVNLFVTLKDATKELVETVFAQIKALRDAGLLERVHVEIDSFADEETKELAFDLAHEVGVDALAYNDEG

Each binder was assayed against GABARAP, O95166 (assay: median log2 fold change of GCK-ALFA target abundance (FLAG IP / Myc IP barcode read proportion) (log2 ratio); each designed protein is fused to an ALFA-tag nanobody in HEK293 cells to bring the named protein to FLAG-tagged glucokinase (GCK); Myc marks an untargeted standard; higher = target protein stabilised (more abundant)). Conditions: target protein: 3xFLAG-MCP-GCK-ALFA reporter; HEK293 landing pad (RPLP).
How it was run: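 An ALFA-nanobody-fused binder library was recombined into HEK293 landing-pad cells and induced with 2 μg mL^−1 doxycycline. Cells were transfected with a plasmid expressing a FLAG-tagged target and a Myc-tagged standard. After 48 h, lysates underwent anti-FLAG and anti-Myc immunoprecipitation, and circular RNA barcodes were reverse transcribed, amplified and sequenced. Target abundance is the per-binder median log2 ratio of FLAG to Myc barcode read proportions. Barcodes needed ≥10^−7 proportion in both replicates, binders ≥3 barcodes per replicate, and a 10^−6 pseudocount was added; the two replicates were pooled.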

Chain of GABARAP, O95166 (O95166 whole entry, the tested form may be a part): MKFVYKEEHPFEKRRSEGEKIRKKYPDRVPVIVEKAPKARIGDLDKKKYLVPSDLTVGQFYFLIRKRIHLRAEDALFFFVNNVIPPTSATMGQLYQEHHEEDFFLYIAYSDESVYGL

Point of comparison: B7, “median log2 fold change” value -0.444. Against it:
- B1 — higher, 0.358
- B2 — higher, 0.188
- B3 — higher, 0.0687
- B4 — higher, 0.253
- B5 — higher, 0.104
- B6 — higher, -0.203
- B8 — within 0.2 log units, -0.479
- B9 — higher, 0.103
- B10 — higher, 0.0595
- B11 — higher, 0.209
- B12 — higher, 0.136
- B13 — higher, -0.12
- B14 — higher, 0.128
- B15 — higher, 0.0204
- B16 — higher, 0.0501
- B17 — higher, -0.0414
- B18 — higher, 0.104
- B19 — higher, -0.204
- B20 — higher, 0.199
- B21 — higher, 0.132
- B22 — within 0.2 log units, -0.311
- B23 — higher, 0.167
- B24 — within 0.2 log units, -0.278
- B25 — higher, -0.133
- B26 — higher, 0.368
- B27 — higher, 0.124
- B28 — higher, -0.111
- B29 — higher, 0.225
